This experiment in a line: SPR (BiaCore) of sequence-optimized anti-Dig modules. The experiment is classed as binding. The text has this: Further optimization of the humanized VH and VL sequences of the anti-digoxygenin antibody was applied to generate modules with even higher affinity towards digoxygenin. Based upon the experimentally determined as well as in-silico calculated predicted structures (see above, based upon structure modeling without experimental structure determination), we identified three positions in which alterations might affect affinity. These were located at (Kabat positions) Ser49, Ile57 and Ala60 of the VH domain (FIG. 46). Replacement of the amino acid VHSer49 with Ala, VHIle57 with Ala and of VHAla60 with Pro generated antibody derivatives with sequences that are listed as SEQ ID NO 36 and SEQ ID NO 37. […] The relevance of these positions was thereafter confirmed by inspecting the experimentally determined structure of the dig-binding variable region. The digoxygenin binding module with improved affinity can be applied as hapten-binding entity for various bi- and multispecific antibody derivatives.
For that, binding properties of the recombinant <Dig> derivatives were analyzed by surface plasmon resonance (SPR) technology using a Biacore T100 or Biacore 3000 instrument (GE Healthcare Bio-Sciences AB, Uppsala). This system is well established for the study of molecule interactions. […]

B1: <DIG> optimized at VH 49, 57, 60 (Kabat): humanized anti-Dig module with VH S49A, I57A, A60P; SEQ ID NO 36 and 37 (antibody)
heavy: QVQLVESGGGLVKPGGSLRLSGAASGFTFSDYAMSWIRQAPGKGLEWVASINIGATYAYYPDSVKGRFTISRDNAKNSLYLQMNSLRAEDTAVYYCARPGSPYEYDKAYYSMAYWGQGTTVTVSS[human IgG1 constant region not shown]
light: DIQMTQSPSSLSASVGDRVTITCRASQDIKNYLNWYQQKPGKAPKLLIYYSSTLLSGVPSRFSGSGSGTDFTLTISSLQPEDFATYYCQQSITLPPTFGGGTKVEIKRTVAAPSVFIFPPSDEQLKSGTASVVCLLNNFYPREAKVQWKVDNALQSGNSQESVTEQDSKDSTYSLSSTLTLSKADYEKHKVYACEVTHQGLSSPVTKSFNRGEC
Usually Kd stands for the constant that tells how readily two partners part at equilibrium. As to B1, the dissociation constant Kd (BiaCore, FIG. 46 c, d, read-out: KD of anti-Dig module) amounted to 1 nM. In addition, under “VH49, VH57 and VH60 mutations”, the “improvement of affinity towards digoxygenin compared to the humanized parent molecule” value is “approximately 10 fold”.

For the origin of these results see US9050375B2, “Bi-specific digoxigenin binding antibodies” (priority 2009, dated 2015).
